System: human plasma proteins
Experiment: in vitro
Settings: human plasma (EDTA), Plasma Protein Binding %, 60 μm, human plasma vs PBS

## CN(C)C(=O)C(CCN1CCC(O)(c2ccc(Cl)cc2)CC1)(c1ccccc1)c1ccccc1 [Loperamide, loperamide]
SPME coating PAN/C-18, 0.01″
  fraction unbound: 0.04
SPME coating PAN/RP-amide, 0.01″
  fraction unbound: 0.03

Source: patent US20090026122A1, “BIOCOMPATIBLE SOLID-PHASE MICROEXTRACTION COATINGS AND METHODS FOR THEIR PREPARATION” (Janusz, priority 2002, published 2009)
